In all, about 110,000 compounds went through this assay and about 230 (0.21%) showed an effect of 50% or more. Some of the results follow.
What follows are compounds tested against DPAP1 (Plasmodium falciparum, UniProt Q8IIJ9) (assay: primary screen, percent inhibition; read by cleavage of a fluorogenic dipeptide substrate; higher = more effect of the substance).
Parameters: species or system P. falciparum D10 trophozoite lysates; single well
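Further: 30 min substrate incubation versus DMSO and 10 µM JCP410 controls.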

Chain of DPAP1 (Q8IIJ9 whole entry, looked up): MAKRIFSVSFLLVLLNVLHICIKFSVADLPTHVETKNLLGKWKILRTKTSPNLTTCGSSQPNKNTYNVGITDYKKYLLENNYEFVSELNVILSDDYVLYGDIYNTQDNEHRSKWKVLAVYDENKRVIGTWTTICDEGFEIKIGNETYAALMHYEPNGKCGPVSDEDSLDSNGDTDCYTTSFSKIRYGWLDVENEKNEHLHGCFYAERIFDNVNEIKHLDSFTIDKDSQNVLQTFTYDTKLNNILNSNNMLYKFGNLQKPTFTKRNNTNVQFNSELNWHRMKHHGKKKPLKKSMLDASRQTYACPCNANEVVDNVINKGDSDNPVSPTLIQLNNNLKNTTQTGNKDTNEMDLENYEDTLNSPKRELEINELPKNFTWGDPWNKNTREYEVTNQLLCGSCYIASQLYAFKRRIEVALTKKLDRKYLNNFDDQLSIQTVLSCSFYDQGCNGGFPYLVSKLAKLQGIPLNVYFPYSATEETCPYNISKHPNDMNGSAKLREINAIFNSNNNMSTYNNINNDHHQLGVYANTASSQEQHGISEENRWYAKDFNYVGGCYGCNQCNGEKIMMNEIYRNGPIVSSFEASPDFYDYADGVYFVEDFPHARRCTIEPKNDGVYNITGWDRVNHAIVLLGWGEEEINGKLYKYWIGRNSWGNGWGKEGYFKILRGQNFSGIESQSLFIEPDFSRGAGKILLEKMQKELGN

Row | SMILES | % Inhibition @ 10 uM
1 | CCO/C(O)=C1\C(C)=NC(=S)NC1c1cc(OC)ccc1OC (stereo not drawn) | 1.54%
2 | Cc1ccc2c(c1)c(-c1ccccc1)c(-c1ccccc1)n2CC(O)CN1CCOCC1 (stereo not drawn) | -2.91%
3 | CC1=C(C(=O)NC(C)c2ccc3c(c2)OCCO3)C2(CCCCC2)OC1=O (stereo not drawn) | 1.55%
4 | O=C(Nc1sc2c(c1C(=O)O)CCCCC2)c1ccccc1 | -0.949%
5 | Cc1ccc(NC(=O)Cn2c(-c3nonc3N)nc3ccccc32)cc1Br | -4.52%
6 | Cn1ncc2c(NCCN3CCOCC3)ncnc21 | 1.09%
7 | COc1ccc2c(C)nc(N=C(N)N)nc2c1 | 5.55%
8 | COc1cc(NC(=O)c2cc(OC)c(OC)c(OC)c2)ccc1NC(=O)c1cc2ccccc2o1 | 0.812%
9 | CC(=O)Nc1ccc(/C=C/C(=O)c2ccncc2)cc1 | -4.3%
10 | O=C1N/C(=C/c2ccc(Cl)s2)C(=O)N1Cc1ccccc1 | -4.6%
11 | Cc1cccn2c(=O)c3cc(C(=O)N4CCOCC4)c(=N)n(Cc4cccnc4)c3nc12 | 0.279%
12 | O=c1c(NCc2ccccc2)c(-c2ccccc2)c1=O | -4.99%
13 | CCCc1cc(C(=O)NC(C)c2ccccc2)no1 (stereo not drawn) | -0.591%
14 | O=C(c1ccc2nc(N3CCCCC3)sc2c1)N1CCN(c2ncccn2)CC1 | 2.65%
15 | Cc1ccc(CN(C(=O)c2ccc(Cl)cc2)C2CCS(=O)(=O)C2)o1 (stereo not drawn) | 2.19%
16 | Cc1ccc(C(CC(=O)O)Nc2nc(NCCO)nc(N3CCOCC3)n2)cc1 (stereo not drawn) | 2.7%
17 | CSc1nc2c(c(=O)n1-c1ccc(C)cc1)C1(CCCC1)Cc1ccccc1-2 | -1.59%
18 | CCS(=O)(=O)c1nc(S(=O)(=O)c2ccc(Cl)cc2)c(N2CCC3(CC2)OCCO3)s1 | -0.522%
19 | CCC(C)Oc1ccc(/C=C2\SC(=O)N(CC(=O)N3CCOCC3)C2=O)cc1 (stereo not drawn) | 4.61%
20 | COc1ccccc1-c1c(C)nn2c(SCC(=O)NC(C)c3ccccc3)cc(C)nc12 (stereo not drawn) | 0.0198%
21 | CC1CN(C(=O)/C(=C/c2ccccc2)NC(=O)c2ccccc2)CC(C)O1 (stereo not drawn) | -2.64%
22 | Cc1ccnc(NS(=O)(=O)c2ccc(F)c(C)c2)c1 | 1.72%
23 | CCC1CCCCN1C(=O)Cn1c(SCc2ccc(OC)cc2)nc2ccncc21 (stereo not drawn) | -6.01%
24 | Cc1coc2c1c(C)cc1oc(=O)c(CC(=O)N3CCOCC3)c(C)c12 | 0.685%
25 | COc1cc(CN2CCN(c3ccccc3Cl)CC2)cc2c1OCO2 | 2.26%
26 | O=C(NCc1ccc(Cl)cc1)C(=O)NCc1ccco1 | -3.4%

Row | SMILES | % Inhibition @ 10 uM
27 | Oc1cc(-c2ccccc2)nc2nc(-c3ccco3)nn12 | 2.62%
28 | COC(=O)c1c(-c2ccc(C(C)(C)C)cc2)csc1NC(=O)CCC(=O)O | 42.4%
29 | CCOc1nc2c(c(=O)n(C)c(=O)n2C)n1Cc1ccc(Cl)cc1Cl | 0.279%
30 | CCOC(=O)c1c(C)[nH]c(C)c1S(=O)(=O)NCC(=O)N1CCN(c2ncccn2)CC1 | -4.33%
31 | COc1cc(OC)cc(C(=O)Nc2cccc(-c3nc4ncccc4o3)c2)c1 | 6.69%
32 | NCCC1CCCCC(=O)N1 (stereo not drawn) | -2.7%
33 | Nc1nc2n(c1C(=O)c1ccccc1)CCC2 | -1.05%
34 | CC(=O)N(C)c1ccc(NC(=O)COc2ccccc2Cl)cc1 | -5.83%
35 | Cc1ccc(O)c(CCc2ccc(O)cc2)n1 | 3.78%
36 | COCCNC(=O)C1CCN(c2nc3c(C)cc(C)cc3s2)CC1 | 3.4%
37 | CCOc1ccc(NC(=O)CN(c2cc(C)ccc2OC)S(C)(=O)=O)cc1 | 7.38%
38 | COc1cccc(C2CC(=O)NC3=C2C(=O)CC(c2ccccc2Cl)C3)c1OC (stereo not drawn) | -2.87%
39 | O=C(CSc1nc2ccsc2c(=O)n1Cc1ccc2c(c1)OCO2)NCCC1=CCCCC1 | 29.1%
40 | O=C1c2[nH]nc(-c3ccccc3O)c2C(c2ccc(OCc3ccccc3)cc2)N1CCO (stereo not drawn) | -1.35%
41 | COc1ccc(Br)cc1-c1noc(C(F)(F)F)n1 | 2.18%
42 | O=C1NC(=S)NC(=O)C1C1CCCCC1 | -8.76%
43 | CN(CCc1ccccn1)Cc1ccc(Cl)c(Cl)c1 | 0.827%
44 | CC(C(=O)NCC1(c2ccccc2)CCCC1)N1CCCCC1 (stereo not drawn) | 0.587%
45 | CCCCCn1c(C(C)O)nc2ccccc21 (stereo not drawn) | -4.76%
46 | O=C(COc1ccc(Br)cc1)Nc1ccc(S(=O)(=O)N2CCCCCC2)cc1 | 0.472%
47 | Cc1ccc(-n2ncc3c(NCc4cccnc4)ncnc32)cc1Cl | -1.62%
48 | CCOCCCNC(=O)c1cn(C)c(=O)c2c1c1ccccc1n2C | 12.8%
49 | OCCn1c(-c2cccs2)cn2c3ccccc3nc12 | -1.96%
50 | OC1CCCN(Cc2ccc(F)c(F)c2)C1 (stereo not drawn) | 5.42%
51 | COc1ccc(C2=NN(CC(=O)NCCN(Cc3ccccc3)C(C)C)C(=O)CC2)cc1 | -3.58%
52 | COc1cccc(C(=O)Nc2ccc(N3CCN(Cc4ccccc4)CC3)cc2)c1 | -1.65%

Row | SMILES | % Inhibition @ 10 uM
53 | OC1CCN(Cc2cccnc2)CC1 | -1.07%
54 | CCN(CC)S(=O)(=O)c1ccc(Cl)c(C(N)=O)c1 | 6.5%
55 | CC1CCCC(NC(=O)c2ccccc2C(=O)O)C1C (stereo not drawn) | 10.2%
56 | CCOC(=O)/C(C#N)=C(\C)CC(C)C | 1.33%
57 | COc1ccc(CNC(=O)CNS(=O)(=O)c2cccs2)cc1 | -0.503%
58 | Cc1ccc(/C=C(\NC(=O)c2ccccc2)C(=O)NCC2CCCCC2)o1 | -4.48%
59 | CC(=O)Nc1ccc(NC(=O)c2ccccc2C)cc1 | 1.62%
60 | CCOc1ccc2nc(NC(=O)c3ccc(Br)o3)sc2c1 | 2.82%
61 | CCc1ccc(NC2=C(Cl)C(=O)N(c3ccc(OC)cc3)C2=O)cc1 | -6.59%
62 | O=S(=O)(Nc1ccccn1)c1c(Cl)cccc1Cl | 0.968%
63 | O=S(=O)(c1ccc(Cl)c(C(F)(F)F)c1)N1CCN(Cc2ccccc2)CC1 | 7.37%
64 | C=CCOC(=O)C1=C(C)N=C2CCCC(O)=C2C1c1cccc(F)c1 (stereo not drawn) | 3.82%
65 | C=CCSc1nc2c(c(=O)[nH]c(=O)n2C)n1Cc1cccc(Br)c1 | 2.51%
66 | C=CCn1c(COc2cccc3cccnc23)nnc1SCC(=O)O | 1.15%
67 | Cc1cccc(NC(=O)c2cncc(Br)c2)c1C | -0.884%
68 | COc1cc(S(=O)(=O)Nc2cccc(C)c2)ccc1N/C=C1\C(=O)N(C)C(=O)C(C#N)=C1C | -4.4%
69 | Cc1cccnc1NC(=O)c1c(F)c(F)c(F)c(C(=O)Nc2ncccc2C)c1F | -3.5%
70 | CCOCC(=O)Nc1ccc(N(CC)CC)cc1 | -4.15%
71 | COc1ccc(C(=O)CSc2ccccn2)cc1 | 1.13%
72 | CN1C(=O)c2ccccc2C(C(=O)NCCN2CCc3ccccc3C2)C1c1cccs1 (stereo not drawn) | -0.0401%
73 | Cc1ccccc1OCC(=O)Nc1ccc(S(=O)(=O)N2CCOCC2)cc1 | -1.51%
74 | Cc1ccc(CCN2CC(C(=O)NCCCN3CCCC3=O)CC2=O)cc1 (stereo not drawn) | 1.62%
75 | CCC(C(=O)NCCCN(CC)CC)n1nc(C)n2c(cc3occc32)c1=O (stereo not drawn) | -5.63%
76 | O=C(CCS(=O)(=O)c1cccc2nonc12)NCCc1ccccc1Cl | 5.85%
77 | CN1C(=O)S/C(=C/c2cccn2-c2cccc(C(=O)O)c2)C1=O | 4.06%
78 | Cc1ccc2c(CNCc3ccccc3Cl)c(C(=O)O)[nH]c2c1 | -7.56%

Row | SMILES | % Inhibition @ 10 uM
79 | O=C(Nc1c(C(=O)N2CCN(c3ccccn3)CC2)cnn1-c1ccccc1Cl)c1ccco1 | 5.15%
80 | COc1cc(OC)c(C2C=C(c3ccc(Cl)cc3)Nc3ncnn32)cc1OC (stereo not drawn) | 3.32%
81 | Cc1cccc(C(=O)Nc2cc(Cl)c(O)c(Cl)c2)c1 | 3.53%
82 | O=C(CSc1nnnn1-c1ccccc1)NCc1ccccc1 | -0.467%
83 | Cc1cccc(NC(=O)CCc2c(C)nc3ncnn3c2C)n1 | -0.465%
84 | c1ccc(C(CN2CCC(N3CCCCC3)CC2)c2ccccc2)cc1 | -2.02%
85 | Cc1ccc(-c2ccc(=O)n(CCC(=O)NCCc3ccc(Cl)cc3)n2)cc1 | 3.24%
86 | COc1cc2c(cc1OC)C(c1ccc(C)cc1)NC(=O)C2 (stereo not drawn) | -1.37%
87 | CNC(=O)c1cc2c(=O)n3cc(C)ccc3nc2n(CCCOC)c1=N | -1.47%
88 | COc1ccc(C2CC(=O)C(/C=N/c3cc(Cl)ccc3O)=C(O)C2)cc1 (stereo not drawn) | -4.41%
89 | Clc1ccc(OCc2nc3c4cnn(Cc5ccccc5)c4ncn3n2)cc1 | -3.96%
90 | COc1cc(Br)c(C(C)NC(=O)c2ccc(C)cc2)cc1OC (stereo not drawn) | 0.13%
91 | NC(=O)C1CCN(C(=O)COCc2cc(-c3ccc4c(c3)OCO4)on2)CC1 | -4.1%
92 | COc1cccc(C2NC(=O)NC(C)=C2C(=O)Nc2ccccc2Cl)c1 (stereo not drawn) | 3.44%
93 | CCOC(=O)c1ccc(-c2ccc(/C=C(\C#N)c3nc4ccccc4[nH]3)o2)cc1 | 5.75%
94 | O=C(Nc1cccc(F)c1)C1CCN(S(=O)(=O)c2cc(Cl)ccc2Cl)CC1 | 4.11%
95 | O=C1c2ccccc2C(=O)N1CCc1nc(CO)n[nH]1 | 14.4%
96 | Cc1cc(CO)c(C(=O)NCc2ccccc2)c(S)n1 | -1.85%
97 | N#Cc1c(C(F)(F)F)cc(-c2ccncc2)nc1SCC(=O)Nc1nccs1 | 3.99%
98 | CCOC(=O)c1c(C)[nH]c(C)c1S(=O)(=O)NCCCc1ccco1 | -1.23%
99 | O=S(=O)(NC1CCCCC1N1CCNCC1)c1ccc(Cl)cc1 (stereo not drawn) | 1%
100 | O=C(c1cccs1)N1N=C(c2ccc(Br)cc2)CC1c1ccco1 (stereo not drawn) | -2.73%
101 | COc1ccc(-c2nc(SCC(=O)O)nc(O)c2C#N)cc1 | -3.9%
102 | COc1ccc(OC)c(NC(=O)C(C)Oc2ccccc2C)c1 (stereo not drawn) | -2.19%
